Each structure is given as a SMILES string. Out of some 52,000 compounds screened, about 1,700 (3.3%) were called active. Cut-off read from the data, not from the text of the source: active = survival mostly below about 52% (no sharp cut-off); inactive = mostly above about 56%. This is one part of the list.

Survival data for 88 compounds are collected here from PubChem BioAssay AID463173 (ICCB-Longwood Screening Facility, Harvard Medical School, 2010).

This test relates to Wild type. The test can be described thus: growth inhibition of S. aureus wild type versus tarO mutant, primary screen, teichoic acid synthesis inhibitors, RN4220, OD600 (AID 463173). To be noted: S. aureus RN4220 wild type/DeltatarO growth, OD600, 18 h, stronger effect = lower value, screened at 18.75 µg/mL (by protocol).
On to `Cc1cc(Nc2cccc(Cl)c2)nc2ccc(NC(=O)c3cccnc3)cc12`, for which the survival is inactive: 81%. Take `Cc1ccc(NC(=O)CSc2nc3n[nH]c(C)c3c(=N)n2-c2cccc(C)c2)cc1`: the survival was active: -6%. `O=C(CN1C(=O)COc2ccc(S(=O)(=O)N3CCCCCC3)cc21)NCc1ccc(F)cc1`: the survival is inactive: 76%. Regarding `CCc1ccc(CNC(=O)CN2CCSc3ccccc32)cc1`, the survival is inactive: 68%. On to `Cc1ccc(NC(=O)C(=O)NCC2(c3ccccc3)CCCC2)cc1Cl`, for which the survival is inactive: 92%.

For `O=C(NCCc1ccccc1)c1cnn(-c2ccc(F)cc2)c1-n1cccc1`, the survival is inactive: 49%. For `CCOC(=O)N1CCc2c(sc3c2c(=O)n(CCc2ccccc2)c(=O)n3Cc2c(F)cccc2Cl)C1` the value was inactive: 81%; for `CCC(=O)N1CCc2cc(S(=O)(=O)NC(C(=O)Nc3ccc(C(C)=O)cc3)C(C)C)ccc21` (stereo not drawn), inactive: 74%. Take `Cc1cc(C)c2c(CC(=O)N(Cc3ccccc3)C3CCS(=O)(=O)C3)coc2c1` (stereo not drawn): the survival is inactive: 92%. As to `Cc1cc(C)cc(OCC(=O)Nc2ccc(-c3nc4ccccc4o3)cc2)c1`, the survival is inactive: 70%. In the case of `CCC(=O)N1CCc2cc(Br)cc(S(=O)(=O)N3CCCC(C(=O)N(C)c4ccc(Br)cc4)C3)c21` (stereo not drawn), the survival is inactive: 128%. With `Cn1c(=O)oc2cc(S(=O)(=O)Nc3ccc(C(=O)O)cc3)ccc21` the figure was inactive: 84%. Take `O=C(O)CCCN1CCCC1=O`: the survival was inactive: 108%.

As to `COc1ccc(NC(=O)c2cccn2-c2nnc(N3CCCCC3)s2)cc1`, the survival is inactive: 73%. For `COc1ccccc1CNC(=O)c1ccc(-c2nc(CN3CCc4ccccc43)c(C)o2)cc1` the value was inactive: 83%; for `Cc1ccc(OCC(=O)Nc2ccc3nc(SCC(=O)N4CCc5ccccc54)sc3c2)cc1`, inactive: 83%; for `CCn1c(=O)c2sccc2n2c(CCC(=O)Nc3cc(C)cc(C)c3)nnc12`, inactive: 69%. As to `CCOC(=O)C1CCCN(c2nc3c(S(=O)(=O)c4ccc(C)c(C)c4)nnn3c3ccc(Cl)cc23)C1` (stereo not drawn), the survival was inactive: 91%. For the compound `NS(=O)(=O)c1ccc(N=NSCCO)cc1`, the survival was inactive: 96%. Turning to `Cc1ccc(Cl)cc1N1CCN(c2ncnc3onc(C)c23)CC1`, the survival was inactive: 64%. For `COc1ccc2c(c1)CC(C(=O)NCCCN1CCN(c3ccc(F)cc3)CC1)CO2` (stereo not drawn) the value was inactive: 71%. Turning to `COc1cccc(N2CCN(C(=O)C3CCN(S(=O)(=O)c4ccc5c(c4)oc(=O)n5C)CC3)CC2)c1`, the survival is inactive: 95%.

With `Clc1ccc(N2CCN(c3ncnc4c3nc3n4CCCC3)CC2)cc1`, the survival was inactive: 73%. For `COc1ccc(-c2nc(CS(=O)CC(=O)NCc3ccccc3OC)c(C)o2)cc1` (stereo not drawn) the value was inactive: 123%; for `COc1cccc(C(=O)Nc2cc3c(cc2C(=O)c2ccc(C)cc2)OCCO3)c1`, inactive: 71%. In the case of `COC(=O)C1=C(C)OC(N)=C(C#N)C1c1c(C)nn(-c2ccccc2)c1Cl` (stereo not drawn), the survival is inactive: 104%. For `COc1ccc(C(=O)NCc2nnc(SCC(=O)Nc3ccccc3)n2-c2ccc(F)cc2)cc1` the value was inactive: 78%; for `COCC(=O)N(C)c1nnc(-c2ccc(OC)cc2)s1`, inactive: 99%; for `CCOc1ccc(CCNC(=O)CN2C(=O)C(CC)Oc3ccccc32)cc1OCC` (stereo not drawn), inactive: 67%.

With `CCn1cc(C(=O)Nc2ccccc2)c(=O)c2ccc(C)nc21`, the survival was inactive: 111%. `Cn1c(=O)oc2cc(S(=O)(=O)CCC(=O)N3CCN(c4ccccc4)CC3)ccc21`: the survival is inactive: 70%. For `COc1ccccc1-c1cc(C(=O)Nc2sc3c(c2C#N)CCCC3)no1`, the survival was inactive: 140%. For the compound `COc1ccc(NC(=O)c2c(NCc3ccc(C)o3)sc3c2CCC(C)C3)c(OC)c1` (stereo not drawn), the survival was inactive: 84%. As for `COc1ccc(OC)c(NC(=O)CSc2ccnc(=O)[nH]2)c1`, the survival is inactive: 80%. In the case of `COc1ccccc1N1CCN(S(=O)(=O)c2c(C)sc3ncn(CC(=O)Nc4cccc(Cl)c4)c(=O)c23)CC1`, the survival was inactive: 83%.

In the case of `COc1ccc(C2CC(c3c(O)n(C4CCCCC4)c(=O)[nH]c3=O)=Nc3ccccc3S2)cc1` (stereo not drawn), the survival is inactive: 83%. On to `Cc1ccc2c(c1)NC(=O)C(CC(=O)Nc1cc(Cl)ccc1C)O2` (stereo not drawn), for which the survival is inactive: 77%.

Regarding `COC(=O)c1c(-c2ccc(Cl)cc2)noc1N1CCN(c2ccc(OC)cc2)CC1`, the survival is inactive: 69%. For `CCc1nn2c(=O)cc(COC(=O)CNC(=O)c3ccccc3)nc2s1`, the survival is inactive: 124%. For `COc1cc(OC)c(Nc2cc(C)nc3ncnn23)cc1Cl` the value was inactive: 87%. For `Cn1c(SCC(=O)N2c3ccccc3Sc3ccccc32)nnc1-c1ccco1` the value was inactive: 102%.

Regarding `O=C(Nc1ccc(Br)cc1)C1CCN(c2cnccn2)CC1`, the survival is inactive: 93%. For `O=C(O)c1ccc(CSc2n[nH]c(-c3ccco3)n2)cc1` the value was inactive: 109%. Take `CCOc1ccc(C(=O)Nc2cccc(NC(=O)c3ccco3)c2)cc1Cl`: the survival is inactive: 71%. For `COc1ccccc1CNC(=O)c1ccc(N2CCCC2)c(NC(=O)NCc2ccccc2)c1`, the survival was inactive: 70%. On to `CCN(CC)S(=O)(=O)c1nnc(NC(=O)COc2ccccc2Cl)s1`, for which the survival is inactive: 86%. Take `CCC(C(=O)N1CCN(c2ccccc2)CC1)n1nc(C)n2c(cc3sccc32)c1=O` (stereo not drawn): the survival is inactive: 94%. For the compound `O=C(COc1ccccc1F)OCc1cc(=O)n2nc(-c3cccs3)sc2n1`, the survival was inactive: 123%.

As to `Cc1ccccc1CNC(=O)C1CCN(c2nn3cc(-c4ccc(F)cc4)nc3s2)CC1`, the survival was inactive: 66%. With `CCC(CC)c1nn2c(=O)cc(COc3ccc(NC(=O)c4ccccc4Cl)cc3)nc2s1` the figure was inactive: 84%; with `NC(=O)c1cc(S(=O)(=O)N2CCN(c3ccc(F)cc3)CC2)cs1`, inactive: 78%. For the compound `Cc1cccc(CNS(=O)(=O)c2ccc3[nH]c(=O)ccc3c2)c1`, the survival was inactive: 124%. `CC1CCCCN1CCCNC(=O)Cn1ncc2c([nH]c3ccccc32)c1=O` (stereo not drawn): the survival is inactive: 130%. For `COc1ccc(Cn2c(=O)[nH]c3cc(C(=O)N4CCN(c5cc(C)ccc5C)CC4)ccc3c2=O)cc1` the value was inactive: 66%; for `COc1ccc(C)cc1NC(=O)c1cc(S(=O)(=O)NC2CCCCCC2)ccc1F`, inactive: 74%; for `COc1ccc(-c2cnnn2-c2ccc(NC(=O)c3ccc(S(=O)(=O)N(C)C)cc3)cc2)cc1`, inactive: 71%. As for `COc1ccc(-c2cnnn2-c2ccc(NC(=O)c3c(F)cccc3F)cc2)cc1`, the survival was inactive: 120%. For the compound `Cc1nc(N)sc1C(N)=O`, the survival was inactive: 115%.

On to `CC(C)Cn1c(=O)c2ccccc2n2c(CCC(=O)Nc3cccc(Cl)c3)nnc12`, for which the survival is inactive: 89%. For `CCOC(=O)c1cnc2cc(-c3ccc(Cl)cc3)nn2c1-c1ccccc1` the value was inactive: 92%; for `CC(=O)c1cc(-c2ccccc2)n(CC(=O)NC2CCCCC2)c1C`, inactive: 77%.

Turning to `Cc1ccc(NC(=O)Cn2c(=O)n(CCCCCC(=O)NCc3ccc(F)cc3)c(=O)c3sccc32)cc1C`, the survival is inactive: 84%. With `CCCOc1ccc(-c2nn(-c3ccccc3)cc2C2NC(=O)NC(C)=C2C(=O)OC(C)C)cc1` (stereo not drawn), the survival is inactive: 66%. Consider `O=C1Nc2c(c(=O)[nH]c(=O)n2-c2ccccc2)C1(NS(=O)(=O)c1ccc(Cl)cc1)C(F)(F)F` (stereo not drawn), for which the survival was inactive: 130%. `CCOc1ccc(Cn2nnc3c(=O)[nH]c(C4CCN(C(=O)c5ccccc5)CC4)nc32)cc1`: the survival is active: 3%. With `COc1cc(-c2nnc(SCC(=O)NCc3ccccc3Cl)o2)cc(OC)c1OC` the figure was inactive: 104%. Regarding `O=C(Cc1ccc(F)cc1)NC1CC(=O)N(c2ccccc2)C1` (stereo not drawn), the survival is inactive: 72%.

As to `Cc1cc(C)cc(-n2nnc(-c3nc(-c4ccc5c(c4)OCO5)no3)c2C)c1`, the survival was inactive: 73%. Take `Cc1ccc(C(=O)NCCn2c(C)cc3ccccc32)cc1C`: the survival was inactive: 73%. As to `Cc1ccc(S(=O)(=O)C(CNC(=O)C(=O)NCc2ccc(Cl)cc2)c2cccs2)cc1` (stereo not drawn), the survival is inactive: 74%. For the compound `CC(=O)c1ccc(NC(=O)c2cn3c4c(ccc(Cl)c4c2=O)OC(C)C3)cc1` (stereo not drawn), the survival was inactive: 91%. In the case of `CCC(=O)N1c2ccc(S(=O)(=O)N3CCN(c4ccccc4)CC3)cc2CC1C` (stereo not drawn), the survival is inactive: 84%.

`COc1cc2c(=O)n(CCC(=O)NCC3CCCO3)c(=O)n(CC(=O)Nc3ccc(C)cc3)c2cc1OC` (stereo not drawn): the survival is inactive: 92%.

As to `Cn1cnc2sc3c(c2c1=O)CCCC3`, the survival was inactive: 95%. With `Cc1c(NC(=O)c2ccc(OC(C)C)cc2)cccc1-c1nc2ncccc2o1` the figure was inactive: 83%; with `Cc1ccc(S(=O)(=O)c2cn(CC(=O)Nc3ccc(C)c(Cl)c3)c3ccc(C)cc3c2=O)cc1`, inactive: 85%; with `CC(Oc1ccc(F)cc1)C(=O)NCC1(N(C)C)CCCCC1` (stereo not drawn), inactive: 87%.

In the case of `Cc1ccc(CNC(=O)C2CCCN(S(=O)(=O)c3ccc4c(c3)oc(=O)n4C)C2)cc1` (stereo not drawn), the survival was inactive: 106%.

Regarding `O=C1CN(C(=O)c2ccc(S(=O)(=O)N3CCCCC3)cc2)C(c2ccc(F)cc2)c2cc(F)ccc2N1` (stereo not drawn), the survival is inactive: 83%. Consider `COc1cccc(C(=O)NCCSc2c(-c3ccc(F)cc3)[nH]c3ccccc23)c1OC`, for which the survival was inactive: 65%. Regarding `Cc1cc(F)c(F)c(C(=O)N2CCCCCC2)c1Cl`, the survival is inactive: 124%. Regarding `CC(C)Oc1ccc(CNC(=O)CCCn2c(=O)c3cccn3c3ccccc32)cc1`, the survival is inactive: 54%.

On to `CCCS(=O)(=O)Nc1cc(-c2cn3cccc(C)c3n2)ccc1C`, for which the survival is inactive: 86%. For the compound `Cc1ccc(C(=O)CSc2nc(C)cc(C)c2C#N)cc1`, the survival was inactive: 102%. For the compound `COc1ccc(-c2cc(C(F)(F)F)c(C#N)c(SCC(=O)Nc3ccc(F)cc3)n2)cc1`, the survival was inactive: 77%. For the compound `COc1ccc(-c2cn3nc(N4CCC(C(=O)NCc5ccccc5F)CC4)sc3n2)cc1`, the survival is inactive: 77%.

Regarding `Cc1ccc(NCc2cccn2-c2nnc(N3CCC(C(=O)NC(C)C)CC3)s2)cc1`, the survival was inactive: 121%. Turning to `Cc1ccc(S(=O)(=O)N2CCCc3cc(NS(=O)(=O)c4ccc(F)c(C)c4)ccc32)cc1`, the survival is inactive: 81%.
